In this test the test system is hepatitis C virus. Nature of the test: microbe, parasite or virus in culture. The source says: To further characterize the antiviral spectrum of the compounds, we tested their ability to interfere with hepatitis C virus infection, using a trans-complemented infectious particle reporter system (HCVtcp), which mimics a single cycle infection experiment and enables evaluating overall infection efficiency using a luciferase readout (10.1128/JVI.00118-08). Glecaprevir, a clinically approved HCV NS3/4A protease inhibitor was used as control to testify for the ability of the assay to reveal viral protease inhibitors.

One may read the EC50 as the concentration at which the effect is half-maximal. As a reminder, the EC90 is the point of the concentration-response curve where the effect stands at 90%. Higher therefore signals a need for much substance. As to `CC(C)[C@H](NC(=O)OC(C)(C)C)C(=O)N1C[C@@H](C)[C@@]1(CC1CCCCC1)C(=O)N[C@H](C#N)C[C@@H]1CCNC1=O` [Example 36], the EC50 turned out to be 42 µM and the EC90 was over 50 µM.
In the same order, the values of `CCCC[C@@H](C#N)NC(=O)[C@]1(CC(C)C)[C@H](C)CN1C(=O)[C@@H](NC(=O)OC(C)(C)C)C(C)(C)C` [Example 34, Boc-L-Tbg-(aS,β'R)-Azl-NH-[(1S)-1-cyano]pentane] are 45 µM and over 50 µM.
The matching figures for `C[C@@H]1CN(C(=O)[C@@H](NC(=O)OC(C)(C)C)C(C)(C)C)[C@]1(Cc1ccccc1)C(=O)N[C@H](C=O)C[C@@H]1CCNC1=O` [Example 29, Boc-L-Tbg-(αS,β'R')-Azf-L-Ala(3S-2-oxopyrrolidin-3-yl)-H]: over 50 µM and over 50 µM.
In turn, `CC(C)(C)[C@@H]1NC(=O)O[C@@H]2CCC[C@H]2OC/C=C/C(F)(F)c2nc3ccccc3nc2O[C@@H]2C[C@@H](C(=O)N[C@]3(C(=O)NS(=O)(=O)C4(C)CC4)C[C@H]3C(F)F)N(C2)C1=O` [Glecaprevir, reference compound] displayed an EC50 of under 0.06 µM and an EC90 of under 0.06 µM.
As to `CC(C)[C@H](NC(=O)OC(C)(C)C)C(=O)N1C[C@@H](C)[C@@]1(Cc1ccccc1)C(=O)N[C@H](C#N)C[C@@H]1CCNC1=O` [Example 6], the EC50 is over 50 µM and the EC90 is over 50 µM.
`C[C@@H]1CN(C(=O)[C@@H](NC(=O)OC(C)(C)C)C(C)(C)C)[C@]1(Cc1ccccc1)C(=O)N[C@H](C#N)C[C@@H]1CCNC1=O` [Example 14]: the EC50 was over 50 µM and the EC90 is over 50 µM.
`CCCC[C@@H](C#N)NC(=O)[C@]1(CC(C)C)[C@H](C)CN1C(=O)[C@@H](NC(=O)NC(C)(C)C)C(C)(C)C` [Example 25, ^tBuNHCO-L-Tbg-(αS,β'R)-Azl-NH-[(1S)-1-cyano]pentane] came in with an EC50 of 42 µM and an EC90 of over 50 µM.

(Values after patent EP4501942A1, “PEPTIDOMIMETICS WITH ANTIVIRAL ACTIVITY” (priority 2023, dated 2025).)
